Screen size: about 110,000 compounds; about 230 (0.21%) showed an effect of 50% or more. The list shows a part of the results. Where a SMILES comes first, the peptide text is derived from it. The star is where a group is joined. Cbz = O=C(OCc1ccccc1)*
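Note: 30 min substrate incubation versus DMSO and 10 µM JCP410 controls.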

Chain of DPAP1 (Q8IIJ9 whole entry, looked up): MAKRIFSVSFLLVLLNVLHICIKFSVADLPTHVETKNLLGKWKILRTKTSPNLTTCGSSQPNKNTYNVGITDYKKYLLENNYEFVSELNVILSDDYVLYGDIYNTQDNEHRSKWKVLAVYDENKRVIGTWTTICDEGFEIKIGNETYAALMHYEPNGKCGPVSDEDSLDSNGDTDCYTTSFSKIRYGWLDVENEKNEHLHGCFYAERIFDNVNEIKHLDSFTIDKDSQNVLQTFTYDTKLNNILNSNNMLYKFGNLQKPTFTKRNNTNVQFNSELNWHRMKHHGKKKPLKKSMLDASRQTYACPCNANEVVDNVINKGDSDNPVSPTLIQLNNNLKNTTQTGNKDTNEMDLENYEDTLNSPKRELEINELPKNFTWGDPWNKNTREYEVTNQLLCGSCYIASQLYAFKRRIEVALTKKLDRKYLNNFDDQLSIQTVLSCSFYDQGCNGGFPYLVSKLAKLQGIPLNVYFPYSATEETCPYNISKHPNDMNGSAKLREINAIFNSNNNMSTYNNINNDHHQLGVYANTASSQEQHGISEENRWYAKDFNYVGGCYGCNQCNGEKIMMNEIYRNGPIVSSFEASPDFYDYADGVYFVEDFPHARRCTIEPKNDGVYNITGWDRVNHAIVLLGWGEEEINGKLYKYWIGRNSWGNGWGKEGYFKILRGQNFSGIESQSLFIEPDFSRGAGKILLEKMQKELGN

The experiment addresses DPAP1 (Plasmodium falciparum, UniProt Q8IIJ9). The experiment can be described thus: primary screen, percent inhibition; read by cleavage of a fluorogenic dipeptide substrate; higher = more effect of the substance. Details: species or system P. falciparum D10 trophozoite lysates; single well.
For `C=C1c2cc(OC)ccc2NC(=O)N1c1ccc(Cl)cc1`, the “% Inhibition @ 10 uM” value is reported as -1.55%. Regarding `COc1ccc(CNCc2c(C(=O)O)n(Cc3cc(C)ccc3C)c3ccccc23)cc1`, the “% Inhibition @ 10 uM” value was 1.93%. With `COc1ccc(NC(=O)[C@@H]2C3C=CC(C3)[C@@H]2C(=O)O)cc1` (stereo partly drawn) the figure was 1.54%. Under `Cc1ccc2c3c(ccc2n1)N=C1CCCC(O)=C1C3c1ccccc1` (stereo not drawn) stands -1.06%. Turning to `O=C(Nc1cccc(N2C(=O)C3CC=CCC3C2=O)c1)c1ccccc1` (stereo not drawn), the “% Inhibition @ 10 uM” value was -4.54%. With `O=C(c1cc(F)c(F)cc1Cl)N1CCOCC1` the figure was -1.8%; with `O=C(NCCC1=CCCCC1)C1CCN(c2ncnc3c2nc2n3CCCCC2)CC1`, 4.61%; with `Oc1nc(-c2ccccc2)c2cc(Cl)ccc2n1`, -1.32%.

Consider `COc1ccc2cc(-c3nc(-c4ccc(OC)c(OC)c4)no3)c(=O)oc2c1`, for which the “% Inhibition @ 10 uM” value is on record as 10.3%. Under `Cc1cc(C)c2nc(N3CCCC(C(=O)NC4CCN(Cc5ccccc5)CC4)C3)sc2c1` (stereo not drawn) stands -1.58%; under `COCc1[nH]nc2c1C(c1ccncc1)C(C#N)=C(N)O2` (stereo not drawn), -2.06%; under `COc1ccccc1[C@@H]1[C@H]2CCCC[C@]2(O)CCN1C(C)=O`, 0.98%. With `COc1ccc(CN2CCN(S(=O)(=O)c3ccc(Cl)cc3)CC2)cc1Br` the figure was 2.45%.

Consider `CC(=O)N[C@H]1[C@H](Oc2nc3ccccc3o2)O[C@H](CO)[C@@H](O)[C@@H]1O`, for which the “% Inhibition @ 10 uM” value stood at 4.8%. With `COc1cc(C(=O)Nc2ccccn2)cc(OC)c1OC` the figure was -1.6%; with `COc1ccc(CNC(=O)c2cc3c(s2)-c2ccc(Cl)cc2S(=O)(=O)C3)cc1`, -2.45%. As for `O=C1CC(N2CCC(c3nc4ccccc4o3)CC2)C(=O)N1Cc1ccc(F)cc1` (stereo not drawn), the “% Inhibition @ 10 uM” value is -2.18%. Under `O=C(NCCCN1CCN(C2CCCCC2)CC1)c1cc2c(s1)CS(=O)(=O)C2` stands -6.59%; under `NS(=O)(=O)c1ccc(NC(=O)CN2C(=O)S/C(=C\C=C\c3ccccc3)C2=O)cc1`, 1.27%; under `CN(CC(=O)Nc1ccc(C(F)(F)F)cc1)S(=O)(=O)c1ccc(F)cc1`, -2.29%. With `Cc1cc(C(=O)NCc2nc3ccccc3[nH]2)c2ccccc2n1` the figure was 10.4%; with `Brc1ccc(-c2nnc(CC34CC5CC(CC(C5)C3)C4)o2)cc1`, -8.53%. For `COc1cc2ncc(C(=O)c3ccc(C)cc3)c(S(=O)(=O)c3ccccc3)c2cc1OC`, the “% Inhibition @ 10 uM” value is reported as -10.6%. Take `Cc1cc(OCCCCn2ccnc2)cc(C)c1Cl`: the “% Inhibition @ 10 uM” value is 3.48%. Under `Cc1ccccc1CNC(=O)CN(c1ccc(F)cc1)S(=O)(=O)c1ccccc1` stands 3.17%; under `Clc1ccc2c(c1)c1cc(Cl)ccc1n2COCc1ccccc1`, -4.91%. `Cc1cc(C)n(-c2nnc(C)n2/N=C/c2ccccc2O)n1`: the “% Inhibition @ 10 uM” value is given as 2.35%.

As for `CC(=O)c1cc2c(cc1NC(=O)c1ccc(Cl)cc1)OCO2`, the “% Inhibition @ 10 uM” value is on record as -1.61%. With `CCc1nn(CCCC(=O)NCc2ccc(OC)cc2)c(=O)c2cc3occc3n12`, the “% Inhibition @ 10 uM” value is -3.79%. Under `COC(=O)c1sccc1NC(=O)c1nc(-c2ccncc2)no1` stands 3.71%; under `Cc1ccc2c(c1)-c1onc(C(=O)N3CCC(C)CC3)c1CO2`, 4.1%; under `CC(NC(=O)CN(C)S(=O)(=O)c1ccc2[nH]c(-c3ccccc3)nc2c1)c1ccccc1` (stereo not drawn), 2.27%. Under `O=C(NCCSCc1ccccc1)c1ccc(CN2CCc3ccccc3C2)cc1` stands -3.63%; under `CCC(CC)NCc1cc(OC)cc(OC)c1`, 1.43%. Take `CN(C)CCN(C)C1CCN(C)CC1`: the “% Inhibition @ 10 uM” value is on record as 2.22%.

Regarding `CC(=O)N(c1cccc(C)c1)S(=O)(=O)c1ccc(Cl)cc1`, the “% Inhibition @ 10 uM” value was -3.14%. Under `O=[N+]([O-])c1ccccc1-c1nc2ccccc2[nH]1` stands 8.68%; under `CCn1c(C(O)c2cc(OC)ccc2OC)nc2ccccc21` (stereo not drawn), 4.47%. Under `Cc1cccc(OCC(=O)NC2C3CC4CC(C3)CC2C4)c1C` (stereo not drawn) stands 0.189%; under `O=S(=O)(Nc1nccs1)c1ccc(F)cc1`, 1.87%. As to `OCCN1CCN(c2nc(-c3ccc(Cl)cc3)cs2)CC1`, the “% Inhibition @ 10 uM” value is -3.45%. Regarding `FC(c1nc2cc(Cl)ccc2[nH]1)C(F)(F)F` (stereo not drawn), the “% Inhibition @ 10 uM” value is on record as 1.66%. With `Cc1ccc2oc(C(=O)NCCc3ccc(S(N)(=O)=O)cc3)c(C)c2c1` the figure was -1.36%. As to `CN1CCC(N(C)Cc2ccc(Br)cc2)CC1`, the “% Inhibition @ 10 uM” value is listed as -1.92%.

For the compound `CS(=O)(=O)N(CC(=O)NCc1ccc(Cl)cc1)C1CCCCC1`, the “% Inhibition @ 10 uM” value is -0.545%. Under `COc1cc(OC)c(OC)cc1CN1CCOCC1` stands 2.7%; under `Cc1nc2c(C(=O)N3CCc4ccccc4C3)cnn2c(C)c1Cc1ccc(Cl)cc1`, -2.26%. With `COc1cccc(S(=O)(=O)Nc2ccc(C(=O)NCc3ccco3)cc2)c1` the figure was 0.795%; with `O=C(Cn1ncc2c3ccccc3n(Cc3ccccc3F)c2c1=O)N1CCC2(CC1)OCCO2`, -1.58%; with `COc1ccccc1CN1CCN(Cc2cc(OC)c(OC)cc2OC)CC1`, 7.04%. Consider `Cc1ccc(C2CC(=O)N3CN(CCC(C)C)CSC3=C2C#N)cc1` (stereo not drawn), for which the “% Inhibition @ 10 uM” value was found to be 43.8%. Under `COC(=O)c1cc2occc2n1Cc1cccc(OC)c1` stands -1.69%. Turning to `CNCC(C)COc1ccccc1OCc1ccccc1` (stereo not drawn), the “% Inhibition @ 10 uM” value is given as -2.29%.

Take `O=C(O)CCC(=O)N1CCN(c2cccc(Cl)c2)CC1`: the “% Inhibition @ 10 uM” value was 1.52%. With `COc1ccc(CN2CCCCC2CO)c2ccccc12` (stereo not drawn) the figure was 2.1%. For `O=C(Nc1cccc(NC(=O)c2cccnc2)n1)c1cccnc1`, the “% Inhibition @ 10 uM” value is reported as -0.28%. As to `CCN1CCCC1CNC(=O)C12CC3CC(CC(C3)C1)C2` (stereo not drawn), the “% Inhibition @ 10 uM” value is recorded as -1.66%. Under `Cc1ccc(CNC(=O)Cn2ncc3c4ccccc4n(C)c3c2=O)cc1` stands -11.6%; under `CCOC(=O)C1CCCN(Cc2cccc(F)c2)C1` (stereo not drawn), 1.55%.

On to `CN1CCc2nc3sc4c(=O)[nH]c(=O)[nH]c4c3c(-c3ccccc3)c2C1`, for which the “% Inhibition @ 10 uM” value is -1.61%.

With `O=C(NCCCN1CCOCC1)c1ccc(CS(=O)(=O)c2ccc(Br)cc2)o1`, the “% Inhibition @ 10 uM” value is listed as -1.28%. Under `COc1ccc(C2CC(=O)c3cnc(NCCc4ccccc4)nc3C2)cc1` (stereo not drawn) stands -2.98%; under `CC(=O)c1cccc(-n2c(CCC(=O)O)ccc2-c2cccs2)c1`, -3.13%; under `Cc1ccc(CS(=O)(=O)CCC(=O)NCc2ccc3c(c2)OCO3)cc1`, -6.75%.

On to `CC(C)(C)c1ccc(C2=N/C(=C\c3coc4ccccc4c3=O)C(=O)O2)cc1`, for which the “% Inhibition @ 10 uM” value is -0.972%. As to `CN(C)Cc1c(O)ccc2oc(Cc3ccccc3)cc12`, the “% Inhibition @ 10 uM” value is recorded as -1.97%. As for `Cc1cccc(C)c1N(CC(=O)N1CCN(c2ccc(F)cc2)CC1)S(C)(=O)=O`, the “% Inhibition @ 10 uM” value is reported as 3.72%. Turning to `O=C(Nc1ccccc1Oc1ccccc1)C1CCCC1`, the “% Inhibition @ 10 uM” value is reported as -6.57%. For the compound `Cc1ccccc1-c1noc(-c2nnn(-c3ccc(C(C)C)cc3)c2N)n1`, the “% Inhibition @ 10 uM” value is -3.88%. Consider `CCn1c(=O)c2sccc2n2c(CCCC(=O)NCc3ccccc3Cl)nnc12`, for which the “% Inhibition @ 10 uM” value was determined as 3.47%. As to `COc1ccc(NC(=O)C(N)=O)c(OC)c1`, the “% Inhibition @ 10 uM” value turned out to be 4.54%. Under `CCC(C)NC(=O)c1ccc(C(=O)NC(C)CC)nc1` (stereo not drawn) stands 2.48%; under `CCC(C)NC(=O)C1CCN(C(=O)c2ccc(-n3c(C)cc4ccccc43)s2)CC1` (stereo not drawn), -1.19%; under `CCc1ccc(OCC(=O)Nc2sc(C)c(C)c2C(N)=O)c(Br)c1`, -5.14%. Take `COc1cccc(CNC(=O)CCNS(=O)(=O)c2ccc3[nH]c(-c4ccccc4)nc3c2)c1`: the “% Inhibition @ 10 uM” value is on record as -5.61%. Under `COc1ccc(C2C3=C(O)CC(C)(C)CC3=Nc3ccccc3N2C(C)=O)cc1OC` (stereo not drawn) stands -2.53%; under `CCCSc1ncc(Cl)c(C(=O)N(Cc2ccc(C(C)C)cc2)C2CCS(=O)(=O)C2)n1` (stereo not drawn), 1.25%; under `CCOc1ccc(C(=O)N2CCC(Cc3ccccc3)CC2)cc1OCC`, -0.053%. With `O=C(NCCc1ccc(Cl)cc1)C1CCC(CNS(=O)(=O)c2ccccc2)CC1` (stereo not drawn) the figure was 5.47%; with `Cc1ccc(Cl)cc1NC(=O)c1cnccn1`, 5.31%. For the compound `NC(=O)CSc1nc2c(c(=O)n1Cc1ccco1)C1(CCCCC1)Cc1ccccc1-2`, the “% Inhibition @ 10 uM” value is 1.96%.

On to `CC(NC(=O)C(C)NC(=O)CNC(=O)OCc1ccccc1)C(=O)O` (stereo not drawn) (Cbz-Gly-Ala-Ala-OH; configuration not given here), for which the “% Inhibition @ 10 uM” value was 3.25%. For the compound `Cc1ccc2cnn(CC(=O)N3CCN(C)CC3)c2c1`, the “% Inhibition @ 10 uM” value is given as -1.11%. With `CCCCN(C)CCNC(=O)NCc1noc2ccc(C)cc12` the figure was 0.568%; with `O=C(OCc1ccccc1)/C(=C/c1c[nH]c2ccccc12)[N+](=O)[O-]`, 4.93%; with `N#Cc1c2n(c3c(SCc4ccc(Cl)cc4)ncnc13)CCCCC2`, -4.21%.

Regarding `O=C1N/C(=C\c2ccc(OCc3ccc(F)cc3)cc2)C(=O)N1Cc1ccc(Cl)cc1`, the “% Inhibition @ 10 uM” value is listed as -3.06%. For the compound `CCN(CC)C(=O)C1CCCN(CC2CC3C=CC2C3)C1` (stereo not drawn), the “% Inhibition @ 10 uM” value was found to be 5.03%.

As for `CC1CCC(N2CC(=O)N(CCc3ccccc3)C(c3ccc(F)cc3)C2=O)CC1` (stereo not drawn), the “% Inhibition @ 10 uM” value was determined as 1.27%. Under `CNC(=O)CN(c1cc(Cl)ccc1OC)S(=O)(=O)c1ccc(OC)c(OC)c1` stands -1.95%; under `COc1ccccc1-c1nc(S(=O)(=O)c2ccccc2)c(N2CCOCC2)o1`, -8.83%. With `CN(Cc1ccccc1)Cc1nc2c(c(=O)n(C)c(=O)n2C)n1CCc1ccccc1` the figure was -7.05%; with `CC(=O)N/C(=C\c1ccc(OC(C)=O)cc1)C(=O)Nc1ccccc1C#N`, -0.274%. With `CCOc1ccccc1NC(=O)c1cc(Cl)ccc1OC`, the “% Inhibition @ 10 uM” value was determined as 0.235%. With `Cc1cccc(N(CC(=O)NC(C(C)C)C(C)C)S(C)(=O)=O)c1C` the figure was 4.57%; with `N#C/C(=C\c1ccco1)c1nc(-c2ccc(F)cc2)cs1`, 4.33%; with `CCN(CC)c1nc(Cl)nc(NC(C)(C)C)n1`, 2.6%. For `O=C(CCN1N=C(c2ccccc2)CCC1=O)NCc1ccc(F)cc1`, the “% Inhibition @ 10 uM” value is -9.35%. In the case of `COc1cc2c(cc1OC)C(C(=O)Nc1cnc3ccccc3c1)C1c3ccccc3CCN1C2=O` (stereo not drawn), the “% Inhibition @ 10 uM” value is on record as 1.9%.

(Values after paper PMC6919601, “Identification of Plasmodium dipeptidyl aminopeptidase allosteric inhibitors by high throughput screening” (PLoS ONE, 2019).)
